# Laboratory results as given in PubChem BioAssay AID686979 (National Center for Advancing Translational Sciences (NCATS), 2013).
# Out of some 420,000 compounds screened, about 50,000 (12%) were called active. This list was built around the results that the source calls inconclusive (neither active nor inactive); the mix of calls is not that of the screen. Calls come from the whole dose curve; as a rule, active = well fitted inhibition curve with a large enough effect; inconclusive = small, poorly fitted or top-dose-only effect; inactive = flat fitted curve, though single readings scatter. No potency is given beside an inconclusive call; the fits are too rough.
# Experiment: qHTS for Inhibitors of human tyrosyl-DNA phosphodiesterase 1 (TDP1): qHTS in cells in presence of CPT; note: nearly all actives have a fitted effect of over 55% in size
# Conditions: chicken DT40 Tdp1-/-;hTDP1 cells + 20 nM CPT, ATP luminescence, 48 h; activity change, negative = growth inhibition: at 46.2 µM (top of the series)
# How it was run: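 Chicken DT40 Tdp1-/- cells complemented with human TDP1, 400 cells/well, exposed to compounds plus 20 nM camptothecin for at least 48 h at 37 C; viability read as ATP content by CellTiter-Glo luminescence.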
# % is set by controls: 0 for no effect and ±100 for the full control effect; potency is the fitted concentration of half-maximal effect; tags give direction and shape of the fitted curve.
Structure (SMILES),Potency,"activity change, negative = growth inhibition"
Cc1cccc(N2CCN(C(=O)CSCc3c(C)noc3C)CC2)c1C,active: 20.6 µM,–
O=C(c1ccco1)N1CCN(c2ncnc3scc(-c4ccc(F)cc4)c23)CC1,"inconclusive [inhibitor, single point]",–
O=C(N/N=C/c1ccc(O)c(O)c1)C1c2ccccc2Oc2ccccc21,"inconclusive [inhibitor, single point]",–
CN1C/C(=C/c2ccccc2[N+](=O)[O-])C(=O)/C(=C\c2ccccc2[N+](=O)[O-])C1,active: 0.517 µM,–
CCC(c1nnnn1Cc1ccco1)N(Cc1cc2cc(OC)ccc2[nH]c1=O)C1CCCCC1 (configuration not stated),"inconclusive [inhibitor, single point]",–
COc1cc2ncnc(NCc3ccccc3)c2cc1OC,"inconclusive [inhibitor, partial curve]",–
CCOCCn1c2ccccc2c2nc3ccccc3nc21,"inconclusive [inhibitor, single point]",–
CN(Cc1ccccc1)C(=O)c1ncn(Cc2ccccc2)c1C(=O)N(C)Cc1ccccc1,"inconclusive [inhibitor, single point]",–
Cc1ccc(C(=O)N2CCN(C/C=C/c3ccccc3)CC2)cc1S(=O)(=O)N1CCOCC1,"inconclusive [inhibitor, single point]",–
Cc1cc(C)cc(C(=O)NCC(=O)OCC(=O)N2CCCC2)c1,inactive,–
COC(=O)C1CCCCN1Cc1ccc2c(c1)CN(Cc1cnn(-c3ccccc3)c1)CCO2 (configuration not stated),"inconclusive [inhibitor, single point]",–
CC(=O)/C(=N/Nc1ccccc1)Sc1nnc(CCc2ccccc2)n1-c1ccccc1,active: 11.6 µM,–
CN(C)c1ccc(CSc2ccccc2)cc1,"inconclusive [inhibitor, single point]",–
CCN(CC)C(=O)c1sc2nc(-c3cccs3)cc(-c3ccc(Cl)cc3)c2c1N,"inconclusive [inhibitor, single point]",–
CCCOc1ccc(C(C)=O)cc1CSc1nc(O)cc(=O)[nH]1,active: 20.6 µM,–
O=c1c2ccccc2nc(N2CCN(c3cccc(Cl)c3)CC2)n1-c1ccccc1,active: 3.66 µM,–
COC(C/C=C/C(=O)[C@@H](C)OCc1ccccc1)OC,active: 18.4 µM,–
CCOc1cc(/C=N/NC(=O)c2ccc3c(c2)OCCO3)cc(Br)c1O,inactive,–
O=C(Nc1cccc(-c2ccc(F)cc2)c1)C1CCCN(Cc2cccnc2)C1 (configuration not stated),"inconclusive [inhibitor, single point]",–
COC(=O)c1cc(Oc2ccc(S(=O)(=O)N3CCOCC3)cc2[N+](=O)[O-])cc(C(=O)OC)c1,"inconclusive [inhibitor, single point]",–
COc1ccc(-c2cc(C(=O)NCCCN3CCOCC3)c3cc(C(C)C)ccc3n2)cc1,"inconclusive [inhibitor, single point]",–
Cc1ccc(OCC(=O)Nc2ccc(S(=O)(=O)NC3=NCCCCC3)cc2)cc1,"inconclusive [inhibitor, single point]",–
Cc1ccc(CNC(=O)[C@H](Cc2ccccc2)NC(=O)C2CCNCC2)cc1,inactive,–

Structure (SMILES),Potency,"activity change, negative = growth inhibition"
CN(C)CCNc1ccc2ncn3c4ccc(O)cc4c(=O)c1c23,active: 0.0517 µM,–
O=C(NC1CCCC1)C1CCCN1S(=O)(=O)c1cccc2cccnc12 (configuration not stated),"inconclusive [inhibitor, single point]",–
COc1ccc(Nc2c3c(nc4nncn24)CCC3)cc1Cl,active: 18.4 µM,–
COc1ccc(CCC(=O)N2c3ccccc3N=C(c3ccc4c(c3)OCO4)C2C(=O)NCc2ccccc2)cc1 (configuration not stated),"inconclusive [inhibitor, partial curve]",–
CC1Cc2ccccc2N1C(=O)CNc1ccccc1N1CCCCC1 (configuration not stated),"inconclusive [inhibitor, single point]",–
O=C(CC(NS(=O)(=O)c1ccc(Cl)cc1)c1ccco1)NCc1cccnc1 (configuration not stated),inactive,–
CNC(=O)[C@@H]1C[C@H](Sc2nc3ccccc3[nH]2)CN1Cc1ccccc1C(F)(F)F,"inconclusive [inhibitor, single point]",–
COC(=O)c1cccc(CN2C(=O)SC(Nc3ccc(Cl)cc3)C2=O)c1 (configuration not stated),–,inconclusive: -36% [inhibitor]
c1csc(COc2ccccc2CNC2CCCCC2)c1,"inconclusive [inhibitor, single point]",–
O=C(COC(=O)c1cc([N+](=O)[O-])ccc1N1CCOCC1)NCc1ccc(Cl)cc1Cl,–,inconclusive: -30.1% [inhibitor]
CCOC(=O)c1c(C)oc2nc(C)nc(NCc3ccc(OC)cc3)c12,"inconclusive [inhibitor, single point]",–
CC(=O)Nc1sc(N/N=C\c2ccccc2Cl)nc1-c1cccs1,active: 16.4 µM,–
Clc1cc(Cl)cc(C2=NC(Cc3ccccc3)CO2)c1 (configuration not stated),"inconclusive [inhibitor, single point]",–
COCCNC(=O)c1ccc2c(c1)N(Cc1c(F)cccc1Cl)C(=O)c1ccccc1S2,inactive,–
CCN(CC(=O)Nc1cccc(S(=O)(=O)N2CCCCC2)c1)Cc1ccccc1,"inconclusive [inhibitor, single point]",–
CC(=O)Nc1ccc(NC(=O)CCc2c(C)nc3c(c(C)nn3-c3ccccc3)c2C)cc1,inactive,–
COc1ccc(C(C(=O)NC(C)(C)C)N(Cc2ccc(F)cc2)C(=O)CCC(=O)Nc2cc(C)on2)cc1 (configuration not stated),–,inconclusive: -34.2% [inhibitor]
O=S(=O)(c1ccc(Cl)cc1)N1CCc2ccccc21,"inconclusive [inhibitor, single point]",–
COCCCn1c(C(=O)N2CCOCC2)cc2c(=O)n3ccccc3nc21,inactive,–
O=C(Nc1ccccc1C(F)(F)F)N1CCC2(CC1)Oc1ccccc1C(=O)N2Cc1ccccc1F,"inconclusive [inhibitor, single point]",–
CC(C)(Oc1ccc(Cl)cc1)C(=O)Nc1nnc2n1CCS2,"inconclusive [inhibitor, single point]",–
Cc1ccc(N=C2C(=S)N(c3ccc(C)cc3)C(=N)N2/N=C/c2ccc(Cl)cc2)cc1,active: 25.9 µM,–
CCOC(=O)C1CCN(C(=O)COC(=O)c2cccc(NS(=O)(=O)c3ccccc3)c2)CC1,"inconclusive [inhibitor, partial curve]",–

Structure (SMILES),Potency,"activity change, negative = growth inhibition"
CCOC(=O)c1cnc(SCC(=O)Nc2cccc(OC)c2)nc1N,"inconclusive [inhibitor, partial curve]",–
COc1cc(OC)cc(-c2c(-c3ccc(F)cc3)c3cc(-c4ccc5[nH]ccc5c4)ccc3n2C)c1,active: 29.1 µM,–
O=C(c1ccoc1)N1CCC2(CC1)Oc1ccc(F)cc1C(=O)C21CC(c2cccnc2)=NO1 (configuration not stated),"inconclusive [inhibitor, single point]",–
Cc1ccc(-c2[nH]c3ccccc3c2SCCNC(=O)c2cc3ccccc3oc2=O)cc1,"inconclusive [inhibitor, single point]",–
O=S(c1ccc2ccccc2c1)c1cnns1 (configuration not stated),active: 1.03 µM,–
COc1ccc(OCCN(C)CC(=O)Nc2ccccc2SC)cc1,"inconclusive [inhibitor, single point]",–
O=S(=O)(CCNCc1ccco1)NC1CCCCC1,inactive,–
COc1ccc(O)c(CN2CCC(n3nccc3NC(=O)C3CCCC3)CC2)c1,"inconclusive [inhibitor, single point]",–
Cc1ccc2[nH]c3c(c2c1)CC/C(=C/c1ccccc1)C3=O,"inconclusive [inhibitor, single point]",–
COC(=O)c1c(NC(=S)NNC(=O)c2ccc(Cl)s2)sc(C(=O)N(C)C)c1C,"inconclusive [inhibitor, single point]",–
O=C(NCc1ccc(C(F)(F)F)cc1)C1CC(c2cccc(F)c2)=NO1 (configuration not stated),"inconclusive [inhibitor, single point]",–
O=C1Nc2ccccc2C1Cc1ccccc1 (configuration not stated),–,inconclusive: 5.97% [inhibitor]
CCC(=O)Nc1cccc(NC(=S)NC(=O)c2ccccc2C)c1,inactive,–
Cc1nn(Cc2ccccc2)c(Cl)c1/C=C1\NC(=S)NC1=O,"inconclusive [inhibitor, single point]",–
COc1cccc(Cn2c(=O)c(-c3cccc(F)c3)nc3cncnc32)c1,"inconclusive [inhibitor, single point]",–
COc1cc(Nc2nc3ccccc3nc2NS(=O)(=O)c2ccc([N+](=O)[O-])cc2)cc(OC)c1OC,active: 10.3 µM,–
CCCCNC(=O)CC1N=C2c3ccccc3N=C(SCC(=O)NCc3ccccc3Cl)N2C1=O (configuration not stated),"inconclusive [inhibitor, single point]",–
CC(C)Oc1ccc(F)cc1-c1cc(C(=O)NC2CCCCC2)[nH]n1,"inconclusive [inhibitor, single point]",–
O=S(=O)(Nc1ccc(-c2nc3cccnc3s2)cc1)c1ccc(Cl)s1,"inconclusive [inhibitor, single point]",–
COc1ccc(CNC(=O)C[C@@H]2C[C@H]3c4cc(NC(=O)NC5CCCC5)ccc4O[C@H]3[C@H](CO)O2)cc1,"inconclusive [inhibitor, single point]",–
Cc1cccc(NC(=O)c2cc(-c3ccc(C)c(C)c3O)n[nH]2)c1,"inconclusive [inhibitor, partial curve]",–
